Reference: the supplement of paper PMC8728848
The list shows a part of the results.

How the values were obtained:
Experiment in all cases: glycan array binding signal (z-score within array); higher = stronger binding
Conditions in all cases: glycan notation: IUPAC condensed, linker removed
[1] = target: Fuc(a1-2)[Gal(a1-4)]Gal(b1-4)GlcNAc
Summary of the method: (§1)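 Glycan array binding is given as a within-array Z-score, which can be read as non-binding when negative. The arrays, 3228 of them, came from the Consortium for Functional Glycomics database and were retained only where the protein sequence was available. Z-scores were averaged across arrays of the same protein sequence at different concentrations or buffers and across linkers.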

[2] = target: Fuc(a1-2)[GalNAc(a1-3)]Gal
Summary of the method: as §1

[3] = target: Fuc(a1-2)[GalNAc(a1-3)]Gal(b1-3)GalNAc(a1-3)[Fuc(a1-2)]Gal(b1-4)GlcNAc
Summary of the method: as §1

[4] = target: Fuc(a1-2)[GalNAc(a1-3)]Gal(b1-3)GalNAc(b1-3)Gal(a1-4)Gal(b1-4)Glc
Summary of the method: as §1

[5] = target: Fuc(a1-2)[GalNAc(a1-3)]Gal(b1-3)GlcNAc
Summary of the method: as §1

[6] = target: Fuc(a1-2)[GalNAc(a1-3)]Gal(b1-3)GlcNAc(b1-2)Man(a1-3)[Fuc(a1-2)[GalNAc(a1-3)]Gal(b1-3)GlcNAc(b1-2)Man(a1-6)]Man(b1-4)GlcNAc(b1-4)GlcNAc
Summary of the method: as §1

[7] = target: Fuc(a1-2)[GalNAc(a1-3)]Gal(b1-3)GlcNAc(b1-2)Man(a1-3)[Fuc(a1-2)[GalNAc(a1-3)]Gal(b1-3)GlcNAc(b1-2)Man(a1-6)]Man(b1-4)GlcNAc(b1-4)[Fuc(a1-6)]GlcNAc
Summary of the method: as §1

[8] = target: Fuc(a1-2)[GalNAc(a1-3)]Gal(b1-3)GlcNAc(b1-3)GalNAc
Summary of the method: as §1

[9] = target: Fuc(a1-2)[GalNAc(a1-3)]Gal(b1-3)GlcNAc(b1-6)GalNAc
Summary of the method: as §1

[10] = target: Fuc(a1-2)[GalNAc(a1-3)]Gal(b1-4)Glc
Summary of the method: as §1

[11] = target: Fuc(a1-2)[GalNAc(a1-3)]Gal(b1-4)GlcNAc
Summary of the method: as §1

[12] = target: Fuc(a1-2)[GalNAc(a1-3)]Gal(b1-4)GlcNAc(b1-2)Man
Summary of the method: as §1

[13] = target: Fuc(a1-2)[GalNAc(a1-3)]Gal(b1-4)GlcNAc(b1-2)Man(a1-3)[Fuc(a1-2)[GalNAc(a1-3)]Gal(b1-4)GlcNAc(b1-2)Man(a1-6)]Man(b1-4)GlcNAc(b1-4)GlcNAc
Summary of the method: as §1

[14] = target: Fuc(a1-2)[GalNAc(a1-3)]Gal(b1-4)GlcNAc(b1-2)Man(a1-3)[Fuc(a1-2)[GalNAc(a1-3)]Gal(b1-4)GlcNAc(b1-2)Man(a1-6)]Man(b1-4)GlcNAc(b1-4)[Fuc(a1-6)]GlcNAc
Summary of the method: as §1

[15] = target: Fuc(a1-2)[GalNAc(a1-3)]Gal(b1-4)GlcNAc(b1-3)Gal(b1-4)GlcNAc
Summary of the method: as §1

[16] = target: Fuc(a1-2)[GalNAc(a1-3)]Gal(b1-4)GlcNAc(b1-3)Gal(b1-4)GlcNAc(b1-3)Gal(b1-4)GlcNAc
Summary of the method: as §1

[17] = target: Fuc(a1-2)[GalNAc(a1-3)]Gal(b1-4)GlcNAc(b1-3)GalNAc
Summary of the method: as §1

[18] = target: Fuc(a1-2)[GalNAc(a1-3)]Gal(b1-4)GlcNAc(b1-3)[Fuc(a1-2)[GalNAc(a1-3)]Gal(b1-4)GlcNAc(b1-6)]GalNAc
Summary of the method: as §1

[19] = target: Fuc(a1-2)[GalNAc(a1-3)]Gal(b1-4)GlcNAc(b1-6)GalNAc
Summary of the method: as §1

[20] = target: Fuc(a1-2)[GalNAc(a1-3)]Gal(b1-4)[Fuc(a1-3)]GlcNAc
Summary of the method: as §1

[21] = target: Fuc(a1-2)[GalNAc(a1-3)]Gal(b1-4)[Fuc(a1-3)]GlcNAc(b1-3)GalNAc
Summary of the method: as §1

[22] = target: Fuc(a1-2)[GalNAc(a1-4)]Gal(b1-4)GlcNAc
Summary of the method: as §1

[23] = target: Fuc(a1-2)[GalNAc(b1-3)]Gal
Summary of the method: as §1

[24] = target: Fuc(a1-3)GlcNAc
Summary of the method: as §1

[25] = target: Fuc(a1-3)[Gal(b1-4)]Glc6S
Summary of the method: as §1

[26] = target: Fuc(a1-3)[Gal(b1-4)]GlcNAc
Summary of the method: as §1

[27] = target: Fuc(a1-3)[Gal(b1-4)]GlcNAc(b1-2)Man
Summary of the method: as §1

[28] = target: Fuc(a1-3)[Gal(b1-4)]GlcNAc(b1-2)Man(a1-3)[Fuc(a1-3)[Gal(b1-4)]GlcNAc(b1-2)Man(a1-6)]Man(b1-4)GlcNAc(b1-4)GlcNAc
Summary of the method: as §1

[29] = target: Fuc(a1-3)[Gal(b1-4)]GlcNAc(b1-2)Man(a1-3)[Fuc(a1-3)[Gal(b1-4)]GlcNAc(b1-2)Man(a1-6)]Man(b1-4)GlcNAc(b1-4)[Fuc(a1-6)]GlcNAc
Summary of the method: as §1

[30] = target: Fuc(a1-3)[Gal(b1-4)]GlcNAc(b1-3)Gal(b1-3)[Fuc(a1-4)]GlcNAc
Summary of the method: as §1

[31] = target: Fuc(a1-3)[Gal(b1-4)]GlcNAc(b1-3)Gal(b1-4)[Fuc(a1-3)]GlcNAc
Summary of the method: as §1

[32] = target: Fuc(a1-3)[Gal(b1-4)]GlcNAc(b1-3)Gal(b1-4)[Fuc(a1-3)]GlcNAc(b1-3)Gal(b1-4)[Fuc(a1-3)]GlcNAc
Summary of the method: as §1

[33] = target: Fuc(a1-3)[Gal(b1-4)]GlcNAc(b1-3)GalNAc
Summary of the method: as §1

[34] = target: Fuc(a1-3)[Gal(b1-4)]GlcNAc(b1-6)GalNAc
Summary of the method: as §1

[35] = target: Fuc(a1-3)[Gal(b1-4)]GlcNAc(b1-6)[Gal(b1-3)GlcNAc(b1-3)]Gal(b1-4)Glc
Summary of the method: as §1

[36] = target: Fuc(a1-3)[Gal(b1-4)]GlcNAc6S
Summary of the method: as §1

[37] = target: Fuc(a1-3)[Gal3S(b1-4)]Glc
Summary of the method: as §1

[38] = target: Fuc(a1-3)[Gal3S(b1-4)]GlcNAc
Summary of the method: as §1

B1: B1567 (Bifidobacterium sp) (protein)
chain: MKFTTAKKAVALTGAVAMLVSVAACGSDSGKSSQPAQDSDVKEITVWAWEPSLTQVAKDFEKETGIKVDLKNVGTNTKEYTQLDNAIEAGSGAPDVAQVEYYAVPQYAIKGNLLDITDKTSGYKDFYTPGPWASVQFAGKVYGLPMDSGPMAFFYNKEVFDKAGVDAEQIKTWDQYYDAAKKIHALGDNYYITSDTGDAGFFDSMTWLAGAKPFQTSSDGSEVTVNLTEDKGVKTFTDFWQKLLDEGLLDTKTAGWSEDWFKGMVDGTIASLFTGAWMPANLANSAADGAGKWRVTQMPTADGSTTNSENGGSSLAVLASTKKADAAYQFIEYANHGAGVATRVAGGAFPADKASLEKDSFKNATTVKNADGQDVDYFGGQKYNEVLAQAAENVSSGYQFLPFEVKARTIFGDYFGKSYTGDQKLSDGVAAWQKALQDYGKDQGFTVK
[1]
  glycan array binding signal (z-score): -0.14
[2]
  glycan array binding signal (z-score): -0.083
[3]
  glycan array binding signal (z-score): -0.138
[4]
  glycan array binding signal (z-score): -0.103
[5]
  glycan array binding signal (z-score): -0.117
[6]
  glycan array binding signal (z-score): -0.111
[7]
  glycan array binding signal (z-score): 0.076
[8]
  glycan array binding signal (z-score): -0.074
[9]
  glycan array binding signal (z-score): -0.123
[10]
  glycan array binding signal (z-score): -0.063
[11]
  glycan array binding signal (z-score): -0.106
[12]
  glycan array binding signal (z-score): -0.162
[13]
  glycan array binding signal (z-score): 0.019
[14]
  glycan array binding signal (z-score): -0.047
[15]
  glycan array binding signal (z-score): -0.108
[16]
  glycan array binding signal (z-score): -0.087
[17]
  glycan array binding signal (z-score): -0.121
[18]
  glycan array binding signal (z-score): -0.098
[19]
  glycan array binding signal (z-score): -0.107
[20]
  glycan array binding signal (z-score): -0.05
[21]
  glycan array binding signal (z-score): -0.097
[22]
  glycan array binding signal (z-score): -0.054
[23]
  glycan array binding signal (z-score): -0.1
[24]
  glycan array binding signal (z-score): -0.157
[25]
  glycan array binding signal (z-score): -0.066
[26]
  glycan array binding signal (z-score): -0.101
[27]
  glycan array binding signal (z-score): -0.045
[28]
  glycan array binding signal (z-score): -0.097
[29]
  glycan array binding signal (z-score): -0.083
[30]
  glycan array binding signal (z-score): -0.052
[31]
  glycan array binding signal (z-score): 0.063
[32]
  glycan array binding signal (z-score): -0.079
[33]
  glycan array binding signal (z-score): -0.093
[34]
  glycan array binding signal (z-score): -0.096
[35]
  glycan array binding signal (z-score): -0.15
[36]
  glycan array binding signal (z-score): -0.097
[37]
  glycan array binding signal (z-score): -0.037
[38]
  glycan array binding signal (z-score): -0.065
